{"source": "PubChem BioAssay AID540267", "about": "(National Center for Advancing Translational Sciences (NCATS), 2011)", "note": "The campaign covered roughly 340,000 compounds. About 530 (0.16%) were called active. Inconclusive results, whose numbers are uncertain, are shown with a selection of clear calls. No stated cut-off is given here; in the data, active means activity change below about -80%; inconclusive means between about -30% and that limit; inactive means weaker than that. On the % scale 0 is the no-effect control and ±100 the full control effect."}
{"test": "Small Molecules that selectively kill Giardia lamblia: qHTS;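 further: parasites exposed to compound for two days anaerobically before the ATP read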", "conditions": "Giardia lamblia trophozoite viability; at 7.66 µM; stronger effect = lower value", "how_it_was_run": "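Each well holds 100 Giardia trophozoites and compound. After two days (48 hrs) at 37 deg C in anaerobic conditions, ATP is quantified by luminescence.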"}
{"smiles": "CC(C)NS(=O)(=O)c1ccc(NC(=O)C2CC3C=CC2C3)cc1", "note": "(configuration not stated)", "activity change": "inconclusive: -31.9% [inhibitor]"}
{"smiles": "O=C(CNC(=O)c1ccc2c(c1)OCO2)NCc1cccs1", "activity change": "inconclusive: -33.3% [inhibitor]"}
{"smiles": "C/C(=N\\NC(=O)c1ccccc1NC(=O)c1ccc(Cl)cc1)c1ccncc1", "activity change": "active: -96.4%"}
{"smiles": "O=C(c1ccco1)N1CCN(c2c([N+](=O)[O-])nn(-c3cccc(Cl)c3)[n+]2[O-])CC1", "activity change": "active: -86.6%"}
{"smiles": "O=C(CNC(=O)c1ccc(Cl)cc1)OCn1nnc2ccccc2c1=O", "activity change": "inactive: 0.178%"}
{"smiles": "CC(=O)Nc1ccc(NC(=O)CSc2nc3nc(-c4cccs4)cc(C(F)(F)F)c3c(=O)[nH]2)cc1", "activity change": "inconclusive: -30.1% [inhibitor]"}
{"smiles": "COc1ccc(C(C(=O)NC2CCCCC2)N(C(=O)c2ccco2)c2ccccc2OC)cc1", "note": "(configuration not stated)", "activity change": "inactive: -5.66%"}
{"smiles": "O=[N+]([O-])c1nn(-c2ccccc2)[n+]([O-])c1N1CCN(c2ccccc2)CC1", "activity change": "active: -81.1%"}
{"smiles": "O=[N+]([O-])c1cccc(S(=O)(=O)c2ccc(NCCOCCO)c([N+](=O)[O-])c2)c1", "activity change": "inconclusive: -64.7% [inhibitor]"}
{"smiles": "CC1CCCCN1S(=O)(=O)c1ccc(S(=O)(=O)N2CCCC2)cc1", "note": "(configuration not stated)", "activity change": "inconclusive: -33.4% [inhibitor]"}
{"smiles": "O=C(Nc1cccc(Oc2ccc(C(=O)O)c(C(=O)O)c2)c1)c1ccc(-c2ccccc2)cc1", "activity change": "inconclusive: -49.1% [inhibitor]"}
{"smiles": "FC(F)(F)c1cccc(NC(=S)NCC2COc3ccccc3O2)c1", "note": "(configuration not stated)", "activity change": "inconclusive: -30.9% [inhibitor]"}
{"smiles": "CN(C)NC(=O)c1ccc([N+](=O)[O-])s1", "activity change": "inconclusive: -64% [inhibitor]"}
{"smiles": "O=C(Nc1ccc2c(c1)OCO2)c1ccc2c(c1)OCO2", "activity change": "inconclusive: -40.1% [inhibitor]"}
{"smiles": "CCOC(=O)N1CCN(c2c(NCCc3ccc(C)cc3)c(=O)c2=O)CC1", "activity change": "inconclusive: -33.7% [inhibitor]"}
{"smiles": "Cc1ccccc1NC(=O)C1CCCN1S(=O)(=O)c1ccc2c(c1)n(C)c(=O)c(=O)n2C", "note": "(configuration not stated)", "activity change": "inconclusive: -30.8% [inhibitor]"}
{"smiles": "O=Nc1c2ccc[nH]c-2c2ccc([N+](=O)[O-])cc12", "activity change": "inconclusive: -45.9% [inhibitor]"}
{"smiles": "COCCOC1CCN(C(=O)C2CCC(=O)N(CCc3ccc(OC)cc3)C2)CC1", "note": "(configuration not stated)", "activity change": "inconclusive: -37.9% [inhibitor]"}
{"smiles": "CN(C(=O)CSc1nnc(-c2ccc(Cl)cc2)n1CC1CCCO1)C1CCS(=O)(=O)C1", "note": "(configuration not stated)", "activity change": "inactive: -21.2%"}
{"smiles": "OC[C@@H]1[C@@H](c2ccc(Cl)cc2)C(c2ccc(F)cc2)=NN1c1ccccc1", "activity change": "inactive: -8.64%"}
{"smiles": "O=C1c2ccccc2C(=O)c2c([N+](=O)[O-])ccc(O)c21", "activity change": "inconclusive: -33.7% [inhibitor]"}
{"smiles": "COCCn1c(C)cc(C2=NNC(=NC3CC3)SC2)c1C", "activity change": "inconclusive: -69.6% [inhibitor]"}
{"smiles": "COc1cccc2cc(-c3ccccc3)c(=O)oc12", "activity change": "inconclusive: -33.2% [inhibitor]"}
{"smiles": "COc1cccc(NC(=O)C2CC(=O)n3cnnc3S2)c1", "note": "(configuration not stated)", "activity change": "inactive: -21.5%"}
{"smiles": "CC(C)(C)C(=O)Nc1ccccc1C(=O)NCc1cccnc1", "activity change": "inactive: -6.2%"}
{"smiles": "CCCn1nc(NC(=O)c2ccccn2)c2cc3cc(C)ccc3nc21", "activity change": "inactive: -20%"}
{"smiles": "C#CCOCCOCCOCCNc1nc(N2CCN(C(=O)CCCCCCCCCCNC(=O)Cn3cc(CCCCCN)nn3)CC2)nc(N2CCN(C(=O)CCCCCCCCCCNC(=O)[C@H]([C@@H](C)CC)n3cc(CCCCN=C(N)N)nn3)CC2)n1", "activity change": "inconclusive: -36.3% [inhibitor]"}
{"smiles": "O=C(NCC1CCCO1)c1ccccc1NS(=O)(=O)c1cccc([N+](=O)[O-])c1", "note": "(configuration not stated)", "activity change": "inconclusive: -33.1% [inhibitor]"}
{"smiles": "CSC1=NC(C)N2C(SC)=NC(C)N12", "note": "(configuration not stated)", "activity change": "inconclusive: -31.6% [inhibitor]"}
{"smiles": "FC(F)(F)c1ccc(C2[C@H]3CN(Cc4ccc(-c5ccccc5)cc4)[C@H](c4ccccc4)C34CC2(c2ccccc2)C4)cc1", "note": "(some centres not stated)", "activity change": "inconclusive: -34% [inhibitor]"}
{"smiles": "COCc1cccc(NC(=O)Cc2cccc3ccccc23)c1", "activity change": "inconclusive: -31.8% [inhibitor]"}
{"smiles": "COC(=O)CN1C(=O)C(C)(C)Oc2ccc(C(=O)Nc3ccccc3F)cc21", "activity change": "inactive: 28.3%"}
{"smiles": "COc1ccc(NC(=O)c2cc3ccccn3n2)cc1", "activity change": "inconclusive: -42.7% [inhibitor]"}
{"smiles": "CCOC(=O)Cc1ccc(NC(=O)c2cccc([N+](=O)[O-])c2)cc1", "activity change": "inconclusive: -37.3% [inhibitor]"}
{"smiles": "Cc1ccc(/C=N/n2nnnc2N)cc1", "activity change": "inconclusive: -30.1% [inhibitor]"}
{"smiles": "Cc1ccc(Cl)cc1NC(=O)CSc1nncn1-c1ccccn1", "activity change": "inconclusive: -35.2% [inhibitor]"}
{"smiles": "CC1=Nc2ccccc2/C1=C\\c1sc(Nc2ccc(C)cc2)nc1O", "activity change": "inconclusive: -30.1% [inhibitor]"}
{"smiles": "Cc1ccc(OCC(=O)Nc2ccc(C)c(S(=O)(=O)N3CCCCC3)c2)c([N+](=O)[O-])n1", "activity change": "inconclusive: -43.7% [inhibitor]"}
{"smiles": "Cc1cc(CNC(=O)c2cccc3c2C(=O)c2ccc(-c4ccc(F)cc4OCc4ccccc4)cc2S3(=O)=O)c(C(F)(F)F)o1", "activity change": "inactive: -5.81%"}
{"smiles": "O=C(CN1c2ccccc2S(=O)(=O)c2ccccc21)NCc1ccc(F)cc1", "activity change": "inactive: 8.01%"}
{"smiles": "CC(NC(=O)CN1CCOCC1)c1ccccc1", "note": "(configuration not stated)", "activity change": "inconclusive: -41.8% [inhibitor]"}
{"smiles": "CC(C)(C)OC(=O)N1CCC(Cc2cc(-c3cccc(Br)c3)no2)(C(=O)O)CC1", "activity change": "inconclusive: -44.7% [inhibitor]"}
{"smiles": "Cc1cccc(OCC(=O)Nc2ccccc2N2CCN(C)CC2)c1", "activity change": "inactive: -0.728%"}
{"smiles": "O=C(NCCN1CCN(c2ccccc2F)CC1)C1CCCN(S(=O)(=O)c2cnc[nH]2)C1", "note": "(configuration not stated)", "activity change": "inconclusive: -36.1% [inhibitor]"}
{"smiles": "Cn1c(Cc2cccc3ccccc23)nnc1SCC(=O)N1CCN(c2ccccc2)CC1", "activity change": "inactive: 35.7%"}
{"smiles": "CCCC(=O)c1cc(F)c(N2CCN(CCC#N)CC2)cc1C", "activity change": "inconclusive: -40% [inhibitor]"}
{"smiles": "CC(C)(C)c1ccc(-c2nnc(SCC(=O)O)n2N)cc1", "activity change": "inconclusive: -31.3% [inhibitor]"}
